Assay results: the supplement of paper PMC4604168 (melanoma cell lines)
Some of the results follow. Many values rest on one well or one pass, so single values are uncertain.

Experiments:
Test in all cases: cell count relative to DMSO control; melanoma cells; higher = more viable cells
Conditions in all cases: library dose: standard library concentration; 72 h
G361 = tested on: G361
IPC-298 = tested on: IPC-298
IST-MEL1 = tested on: IST-MEL1
LB2518-MEL = tested on: LB2518-MEL
LOXIMVI = tested on: LOXIMVI
MEL-HO = tested on: MEL-HO
MZ2-MEL = tested on: MZ2-MEL
MeWo = tested on: MeWo
RPMI7951 = tested on: RPMI7951
RVH-421 = tested on: RVH-421
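Also: cells treated in 1,536-well plates, then fixed and DAPI-stained, with nuclei counted from automated high-throughput microscope images.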

| Structure (SMILES) | cell count (G361) | cell count (IPC-298) | cell count (IST-MEL1) | cell count (LB2518-MEL) | cell count (LOXIMVI) | cell count (MEL-HO) | cell count (MZ2-MEL) | cell count (MeWo) | cell count (RPMI7951) | cell count (RVH-421) |
| --- | --- | --- | --- | --- | --- | --- | --- | --- | --- | --- |
| CC(C)C[C@H](NC(=O)[C@H](Cc1ccccc1)NC(=O)c1cnccn1)B(O)O [Bortezomib] + COc1ccc(Cl)c(Nc2nc3ccccc3nc2NS(=O)(=O)c2cccc(NC(=O)C(C)(C)N)c2)c1 [XL147] (first compound 0.005 µM, partner dose 4 µM) | 1.24% | 26.2% | 29.2% | 3.77% | 39.7% | 47.5% | 5.67% | 16.8% | 7.43% | 3.58% |
| Cc1cn(-c2cc(NC(=O)c3ccc(C)c(Nc4nccc(-c5cccnc5)n4)c3)cc(C(F)(F)F)c2)cn1 [nilotinib] + CS(=O)(=O)CCNCc1ccc(-c2ccc3ncnc(Nc4ccc(OCc5cccc(F)c5)c(Cl)c4)c3c2)o1 [lapatinib] (first compound 1 µM, partner dose 4 µM) | 52.6% | 70.3% | 72% | 78.2% | 64.4% | 66.3% | 42% | 68.6% | 42.4% | 75.2% |
| CC(C)C[C@H](NC(=O)[C@H](Cc1ccccc1)NC(=O)c1cnccn1)B(O)O [Bortezomib] + Nc1ccn([C@@H]2O[C@H](CO)[C@@H](O)C2(F)F)c(=O)n1 [gemcitabine] (first compound 0.005 µM, partner dose 0.002 µM) | 0.979% | 8.23% | 7.65% | 2.03% | 39.5% | 20.2% | 2.7% | 10.1% | 3.85% | 10.7% |
| Cc1cc(Nc2cc(N3CCN(C)CC3)nc(/C=C/c3ccccc3)n2)n[nH]1 + COCC[n+]1c2c(n(Cc3cnccn3)c1C)C(=O)c1ccccc1C2=O [YM155] (first compound 0.2 µM, partner dose 0.002 µM) | 79.7% | 55.1% | 49% | 31.6% | 76.4% | 83.9% | 26.1% | 46.8% | 34.8% | 77.9% |
| COc1ccc(C2=N[C@@H](c3ccc(Cl)cc3)[C@@H](c3ccc(Cl)cc3)N2C(=O)N2CCNC(=O)C2)c(OC(C)C)c1 [Nutlin-3] + O=C1NC(=O)/C(=C/c2ccc(-c3ccc(F)cc3O)o2)S1 [AS252424] (first compound 0.5 µM, partner dose 5 µM) | 68.5% | 87.1% | 109% | 73.8% | 74.8% | 81.6% | 106% | 94.7% | 105% | 83.1% |
| CC(C)C[C@H](NC(=O)[C@H](Cc1ccccc1)NC(=O)c1cnccn1)B(O)O [Bortezomib] + Oc1nc(-c2ccc(C(F)(F)F)cc2)nc2c1CSCC2 [XAV939] (first compound 0.005 µM, partner dose 10 µM) | 61.2% | 90.1% | 88% | 85% | 92.9% | 85.8% | 91.5% | 81.5% | 78.6% | 76.7% |
| Cn1c(=O)n(-c2ccc(C(C)(C)C#N)cc2)c2c3cc(-c4cnc5ccccc5c4)ccc3ncc21 + Clc1ccc(Nc2nnc(Cc3ccncc3)c3ccccc23)cc1 [vatalanib] (first compound 0.02 µM, partner dose 10 µM) | 60.6% | 56.2% | 58.4% | 51.9% | 53.3% | 47.9% | 34.7% | 45.5% | 53.2% | 74.7% |
| CC(C)C[C@H](NC(=O)[C@H](Cc1ccccc1)NC(=O)c1cnccn1)B(O)O [Bortezomib] + Cc1ccc(NC(=O)c2cccc(N(C)C)c2)cc1NC(=O)c1ccc(O)cc1 [ZM336372] (first compound 0.005 µM, partner dose 10 µM) | 1.24% | 20.1% | 12.1% | 1.49% | 24.9% | 48.1% | 7.85% | 18.6% | 4.91% | 6.4% |
| Cn1c(=O)n(-c2ccc(C(C)(C)C#N)cc2)c2c3cc(-c4cnc5ccccc5c4)ccc3ncc21 + N#Cc1c(O)c2c(-c3ccc(-c4ccccc4O)cc3)csc2[nH]c1=O [A769662] (first compound 0.02 µM, partner dose 10 µM) | 64.6% | 77.4% | 73.7% | 121% | 87% | 75.2% | 72.2% | 68.8% | 68.2% | 105% |
| Cc1cn(-c2cc(NC(=O)c3ccc(C)c(Nc4nccc(-c5cccnc5)n4)c3)cc(C(F)(F)F)c2)cn1 [nilotinib] + O=C(O)c1ccc(-c2c[nH]c3ncc(-c4ccccc4)cc23)cc1C1CCCC1 [GSK650394] (first compound 1 µM, partner dose 0.8 µM) | 67.8% | 106% | 79.5% | 118% | 79.8% | 67% | 106% | 96.1% | 58.5% | 65.1% |
| Cc1cc(Nc2cc(N3CCN(C)CC3)nc(/C=C/c3ccccc3)n2)n[nH]1 + CO[C@@H]1[C@H](N(C)C(=O)c2ccccc2)C[C@H]2O[C@]1(C)n1c3ccccc3c3c4c(c5c6ccccc6n2c5c31)C(=O)NC4 [Midostaurin] (first compound 0.2 µM, partner dose 0.4 µM) | 56.2% | 80.2% | 79.4% | 67.2% | 70.9% | 80.2% | 82.4% | 62.7% | 44.2% | 80.3% |
| Cn1c(=O)n(-c2ccc(C(C)(C)C#N)cc2)c2c3cc(-c4cnc5ccccc5c4)ccc3ncc21 + COC(=O)c1sccc1S(=O)(=O)Nc1ccc(Nc2ccccc2)cc1OC [GSK0660] (first compound 0.02 µM, partner dose 5 µM) | 66.2% | 83.1% | 82.3% | 102% | 119% | 66.4% | 62.1% | 60.1% | 64.1% | 89.5% |
| Cc1cn(-c2cc(NC(=O)c3ccc(C)c(Nc4nccc(-c5cccnc5)n4)c3)cc(C(F)(F)F)c2)cn1 [nilotinib] + O=C(O)C(=O)Nc1sc2c(c1C(=O)O)CCNC2 [TCS401] (first compound 1 µM, partner dose 8.33333 µM) | 74.3% | 108% | 102% | 103% | 115% | 81.1% | 120% | 83.4% | 82.1% | 105% |
| Cc1cn(-c2cc(NC(=O)c3ccc(C)c(Nc4nccc(-c5cccnc5)n4)c3)cc(C(F)(F)F)c2)cn1 [nilotinib] + CN(NC(=O)CC(=O)NN(C)C(=S)c1ccccc1)C(=S)c1ccccc1 [STA4783] (first compound 1 µM, partner dose 0.03 µM) | 24.6% | 84.4% | 19.7% | 22.4% | 67.8% | 82.7% | 102% | 17.5% | 78.6% | 66% |
| CC(C)C[C@H](NC(=O)[C@H](Cc1ccccc1)NC(=O)c1cnccn1)B(O)O [Bortezomib] + COc1cc2ncnc(Nc3ccc(Oc4ccccc4)cc3)c2cc1OC [SrcI1] (first compound 0.005 µM, partner dose 10 µM) | 2.22% | 11.6% | 18.5% | 4.09% | 162% | 33% | 5.9% | 18.1% | 13.2% | 14.7% |
| COc1ccc(C2=N[C@@H](c3ccc(Cl)cc3)[C@@H](c3ccc(Cl)cc3)N2C(=O)N2CCNC(=O)C2)c(OC(C)C)c1 [Nutlin-3] + COc1cc2c(Oc3ccc4[nH]c(C)cc4c3F)ncnc2cc1OCCCN1CCCC1 [cediranib] (first compound 0.5 µM, partner dose 2 µM) | 86.2% | 106% | 102% | 81.2% | 58.9% | 101% | 110% | 110% | 105% | 55.4% |
| Cc1cc(Nc2cc(N3CCN(C)CC3)nc(/C=C/c3ccccc3)n2)n[nH]1 + COc1cc(Nc2ncc(F)c(Nc3ccc4c(n3)NC(=O)C(C)(C)O4)n2)cc(OC)c1OC [Tamatinib] (first compound 0.2 µM, partner dose 2 µM) | 80.5% | 87.5% | 64.4% | 64.2% | 22.6% | 79.6% | 76.6% | 72.3% | 30% | 71% |
| COc1ccc(C2=N[C@@H](c3ccc(Cl)cc3)[C@@H](c3ccc(Cl)cc3)N2C(=O)N2CCNC(=O)C2)c(OC(C)C)c1 [Nutlin-3] + NC1(c2ccc(-c3nc4ccn5c(=O)[nH]nc5c4cc3-c3ccccc3)cc2)CCC1 [MK2206] (first compound 0.5 µM, partner dose 2 µM) | 75.2% | 85.2% | 88.1% | 61.5% | 50.3% | 77% | 92.2% | 80.2% | 106% | 68.2% |
| COc1ccc(C2=N[C@@H](c3ccc(Cl)cc3)[C@@H](c3ccc(Cl)cc3)N2C(=O)N2CCNC(=O)C2)c(OC(C)C)c1 [Nutlin-3] + O=C(O)C(=O)Nc1sc2c(c1C(=O)O)CCNC2 [TCS401] (first compound 0.5 µM, partner dose 8.33333 µM) | 61% | 91.4% | 96.1% | 78% | 68.6% | 83.2% | 115% | 99.6% | 96.2% | 45.8% |
| COc1ccc(C2=N[C@@H](c3ccc(Cl)cc3)[C@@H](c3ccc(Cl)cc3)N2C(=O)N2CCNC(=O)C2)c(OC(C)C)c1 [Nutlin-3] + COc1ccc(COc2ccc(Cc3cnc(N)nc3N)cc2OC)cc1 [GW2580] (first compound 0.5 µM, partner dose 5 µM) | 68.5% | 78.6% | 89.4% | 62.1% | 64.8% | 96.8% | 78.9% | 74% | 124% | 45.3% |
| COc1ccc(C2=N[C@@H](c3ccc(Cl)cc3)[C@@H](c3ccc(Cl)cc3)N2C(=O)N2CCNC(=O)C2)c(OC(C)C)c1 [Nutlin-3] + O=S(=O)(c1ccccc1)N(CC(F)(F)F)c1ccc(C(O)(C(F)(F)F)C(F)(F)F)cc1 [T0901317] (first compound 0.5 µM, partner dose 7 µM) | 55.1% | 80.9% | 95.6% | 65.8% | 97.4% | 83.3% | 88% | 70.5% | 91.7% | 65% |
